From PubChem BioAssay AID686979 (National Center for Advancing Translational Sciences (NCATS), 2013)
The campaign covered roughly 420,000 compounds. About 50,000 (12%) were called active. The inconclusive results got no clear call from the source; some entries with a clear call stand among them for comparison. Calls follow the shape of the dose curve; as a rule, active = well fitted inhibition curve with a large enough effect; inconclusive = small, poorly fitted or top-dose-only effect; inactive = flat fitted curve, though single readings scatter. No potency is given beside an inconclusive call; the fits are too rough.

Assay: qHTS for Inhibitors of human tyrosyl-DNA phosphodiesterase 1 (TDP1): qHTS in cells in presence of CPT; also: nearly all actives have a fitted effect of over 55% in size
Conditions: chicken DT40 Tdp1-/-;hTDP1 cells + 20 nM CPT, ATP luminescence, 48 h; activity change, negative = growth inhibition: at 46.2 µM (top of the series) unless noted
Method in brief: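 Chicken DT40 Tdp1-/- cells stably complemented with human TDP1 were seeded at 400 cells/well in medium containing 20 nM camptothecin, exposed to pin-transferred compounds, and grown at 37 °C for at least 48 hr. Viability was read as ATP luminescence.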
% is scaled to controls: 0 for no effect and ±100 for the full control effect; potency is read from the fitted curve at half-maximal effect; tags tell the direction and shape of the fitted curve.

Compound	Potency	activity change, negative = growth inhibition
CCCCCCN1C[C@H](n2cc(COC(=O)c3ccccc3)nn2)[C@@H](O)C[C@@H]1c1ccccc1	inconclusive [inhibitor, single point]	–
Cc1ccc(C(=O)NC(O)C(Cl)Cl)cc1 (configuration not stated)	inconclusive [inhibitor, single point]	–
COc1cc2nc(C3CCC3)n(NC(=O)C3CCC3)c(=O)c2cc1OC	inconclusive [inhibitor, single point]	–
CCN(CC)S(=O)(=O)c1ccc(N2CCCC2)c(NC(=O)C2CCCCC2)c1	inconclusive [inhibitor, single point]	–
COc1ccc(C)cc1NC(=S)N1CCOCC1	–	inactive: 4.73%
COCC1CCCCN1C(=O)c1ccc2oc(CCCc3ccccc3)nc2c1 (configuration not stated)	active: 18.4 µM	–
COc1ccc(NC(=O)N(C)[C@H]2C[C@H]3c4[nH]c5ccc(-c6ccc(OC)cc6)cc5c4CCN3C(=O)[C@H]2[C@H](C)O)cc1	active: 18.4 µM	–
Cn1c(=O)c2cc(NC(=O)Cc3ccccc3F)ccc2n1Cc1ccc(Cl)cc1	inconclusive [inhibitor, single point]	–
CC(=O)NC(c1cccc(F)c1)c1nc(-c2cnc3ccccc3c2)cs1 (configuration not stated)	inconclusive [inhibitor, single point]	–
COc1ccccc1NC(=O)c1ccc(NC(=O)CN2CCN(C(=O)c3ccco3)CC2)cc1	inconclusive [inhibitor, single point]	–
CSc1c2c(nc3ncnn13)CCC2	–	inactive: 16.8%
CCC1(c2ccc(Cl)cc2)NC(=S)N(c2ccc(C)c(C)c2)N1 (configuration not stated)	–	inactive: 4.72%
O=C(CSC1=Nc2ccccc2C2=NC(Cc3ccccc3)C(=O)N12)Nc1cccc(Cl)c1 (configuration not stated)	active: 16.4 µM	–
COc1ccccc1Cn1c(C2CC(=O)N(c3ccccc3OC)C2)nc2ccccc21 (configuration not stated)	inconclusive [inhibitor, single point]	–
CCn1c(O)c(N=NC(=O)CNC(=O)/C=C/c2ccccc2)c2ccccc21	inconclusive [inhibitor, partial curve]	–
CC(=O)NC(c1ccccc1)c1nc(-c2ccccc2C)cs1 (configuration not stated)	–	inactive: -7.32%
CN(C)S(=O)(=O)c1cccc(NC(=O)COc2ccccc2C(=O)Nc2ccccc2)c1	active: 18.4 µM	–
O=C(Cc1ccccc1)Nc1ccc(N2CCN(Cc3ccccc3F)CC2)cc1	–	inactive: -24.2%
COc1cccc(-c2c(-c3cc(OC)cc(OC)c3)n(C)c3ccc(-c4cnc(OC)nc4)cc23)c1	inconclusive [inhibitor, single point]	–
Clc1ccc(C(c2nnnn2CCc2ccccc2)N2CCSCC2)cc1 (configuration not stated)	inconclusive [inhibitor, partial curve, poor fit]	–
O=C(CCC1CCCC1)N1CCN(C(=O)c2ccco2)CC1	inconclusive [inhibitor, single point]	–
CCN1C(=O)c2ccccc2Sc2ccc(NC(=O)Nc3cc(C)cc(C)c3)cc21	active: 11.6 µM	–
CCOC(=O)c1c(-c2ccccc2)oc2ccc(NS(=O)(=O)c3ccc(C)cc3)cc12	active: 2.91 µM	–
Cc1ccccc1CSCC(=O)c1c(N)n(C)c(=O)n(C)c1=O	inconclusive [inhibitor, single point]	–

Compound	Potency	activity change, negative = growth inhibition
O=C(N/N=C/c1ccccn1)c1cc(-c2cccc3ccccc23)n[nH]1	inconclusive [inhibitor, single point]	–
CC(C)(C)c1ccc(NC(=S)NCc2cccs2)cc1	inconclusive [inhibitor, single point]	–
O=S(=O)(Nc1ncccn1)c1ccc(NC(=S)NCc2cccnc2)cc1	–	inactive: 7.82%
CN(N)c1nc2ccccc2nc1C(F)(F)F	inconclusive [inhibitor, single point]	–
O=C(CNC(=O)c1ccc(Br)o1)Nc1cccc(S(=O)(=O)N2CCOCC2)c1	–	inactive: 2.49%
COc1ccc(-c2cnc(SCC(=O)Nc3nc(C(C)(C)C)cs3)n2Cc2ccco2)cc1	inconclusive [inhibitor, single point]	–
O=C(Nc1ccc(Cl)c(Cl)c1)N1CCSCC1	–	inactive: -24.2%
COc1ccccc1CNC(=O)CNC(=O)Cn1cnc2ccccc2c1=O	–	inactive: 8.55%
CC(O)C(=O)N/N=C/c1cccc2ccccc12 (configuration not stated)	–	inactive: 14.3%
N/C(=N\OC(=O)c1ccc(Cl)cc1Cl)c1ccc(Cl)cc1	inconclusive [inhibitor, single point]	–
Cc1ccnc(NC(c2cccc(O)c2)c2ccc3ccc(C)nc3c2O)c1 (configuration not stated)	inconclusive [inhibitor, single point]	–
Cc1cc(C(=O)Cn2nc(C(=O)O)c3ccccc3c2=O)c(C)n1-c1ccc(OC(F)F)cc1	inconclusive [inhibitor, single point]	–
CCOC(=O)C1CCCN(S(=O)(=O)c2ccc(-c3cc(C)no3)s2)C1 (configuration not stated)	–	inconclusive: -34.7% [inhibitor]
CCOc1cc(C2CC(=O)Nc3cc(C)c(C)cc32)ccc1O (configuration not stated)	inconclusive [inhibitor, single point]	–
Cc1cc(=O)c(C(=O)Nc2cccc(C(=O)NC3CC3)c2)nn1-c1ccccc1Cl	–	inactive: -27.1%
COc1ccc(-c2onc(C)c2C)cc1S(=O)(=O)NCCc1ccco1	inconclusive [inhibitor, single point]	–
N#Cc1nc(-c2ccco2)oc1N1CCCC1	–	inactive: 5.06%
COc1cccc(NC(=O)CSc2nnc(-c3ccc(C)cc3)o2)c1	–	inactive: -5.68%
CC(=O)Nc1cccc(NC(=O)C2CCCO2)c1 (configuration not stated)	–	inactive: -0.764%
CN(C)Cc1ccccc1-c1nccc(Nc2ccc(F)cc2)n1	inconclusive [inhibitor, single point]	–
COc1ccccc1CNC(=O)[C@H](C)N1C(=O)N2CCc3c([nH]c4ccccc34)[C@@]2(C)C1=O	active: 29.1 µM	–
CC(COS(N)(=O)=O)Cc1ccc(C(F)(F)F)cc1 (configuration not stated)	inconclusive [inhibitor, partial curve]	–
CCOC(=O)c1c(C)oc2ccc(N(C(=O)c3ccncc3)S(=O)(=O)c3ccc(F)cc3C)cc12	inconclusive [inhibitor, single point]	–
Cn1cccc1CC(=O)NNC(=S)NC(=O)c1ccc(F)cc1	inconclusive [inhibitor, single point]	–

Compound	Potency	activity change, negative = growth inhibition
O=C(NC1CCOCC1)C1CCC(=O)N(Cc2cccc(C(F)(F)F)c2)C1 (configuration not stated)	–	inactive: -10.1%
CCCCOc1ccc(CSC(=N)N)cc1Cl	active: 14.6 µM	–
Cc1onc(C(=O)Nc2cccnc2Cl)c1[N+](=O)[O-]	inconclusive [inhibitor, single point]	–
Nc1ccccc1SCc1c(Cl)cccc1Cl	inconclusive [inhibitor, single point]	–
O=C(CN(Cc1ccccc1)S(=O)(=O)c1cccc(C(F)(F)F)c1)NC1CCCCC1	inconclusive [inhibitor, single point]	–
COCC(C)n1c(C)cc(C(=O)COc2ccc(N(C)S(=O)(=O)c3ccc(NC(C)=O)cc3)cc2)c1C (configuration not stated)	inconclusive [inhibitor, single point]	–
COc1cccc(NC(=O)COC(=O)C2C3CC4OC(=O)C2C4C3)c1 (configuration not stated)	–	inactive: 13.1%
CCOC(=O)[C@]12CCCC=C1N(CCC1=CCCCC1)C(=O)[C@H](CC(=O)NCc1ccccc1)C2	inconclusive [inhibitor, single point]	–
NC(=S)NN=C1CCCCC12CCCC2	inconclusive [inhibitor, single point]	–
CC(C)CCNC(=O)CCCn1c(=O)c2cccn2c2ccccc21	inconclusive [inhibitor, partial curve]	–
O=C1CNc2cc(Cl)ccc2N1	inconclusive [inhibitor, single point]	–
CC1=C/C(=C/N(C)C)C(=O)O1	–	inactive: -19.4%
COc1cccc(NC(=O)CSc2ccc3nnc(-c4cccnc4)n3n2)c1	–	inactive: -1.52%
O=C(NN=Cc1cccc2ccccc12)C(=O)NN=Cc1cccc2ccccc12	inconclusive [inhibitor, single point]	–
Cc1ccc(S(=O)(=O)N(CC(=O)N2CCc3ccccc3C2)c2ccc(Cl)c(Cl)c2)cc1	inconclusive [inhibitor, single point]	–
CSCCC(NC(=O)COc1ccccc1)C(=O)N1CCOCC1 (configuration not stated)	–	inactive: -11%
CCC(C)(C)C1CCC2(CC1)NC(=O)N(CC(=O)N1CCN(S(=O)(=O)c3cc(C)ccc3C)CC1)C2=O (configuration not stated)	inconclusive [inhibitor, single point]	–
CC1(C)CC(NC(=O)c2cc(S(=O)(=O)N3CCOCC3)ccc2Cl)CC(C)(C)N1	–	inactive: 12.3%
CC1(C)OC(=O)C(=NNc2ccccc2C(=O)O)C(=O)O1	–	inconclusive: 0.0362% [inhibitor]
Clc1ccc2[nH]c3c(N4CCC5(CC4)OCCO5)ncnc3c2c1	active: 23.1 µM	–
COC(=O)c1ccc(NC(=O)CCN2CCOCC2)cc1	–	inactive: 1.98%
CCN(C(=O)c1cc2c(=O)oc3ccccc3c2s1)c1ccccc1F	inconclusive [inhibitor, single point]	–
CCc1cc(=O)oc2cc(C)cc(OCC(=O)NCCc3c[nH]c4ccccc34)c12	inconclusive [inhibitor, single point]	–
O=C(CCN1CCOCC1)N/N=C/c1cc([N+](=O)[O-])ccc1OC(F)F	inconclusive [inhibitor, single point]	–
